Among all 340,000 compounds or so, about 12,000 (3.5%) were called active. Inconclusive means that the source gave no clear call. Such entries were picked first, then a sample of the others. Calls follow the shape of the dose curve; as a rule, active = well fitted inhibition curve with a large enough effect; inconclusive = small, poorly fitted or top-dose-only effect, or another doubt; inactive = no such curve, though single readings can be large or run the other way. Potencies of inconclusive entries are left out as doubtful fits.
Test: qHTS Assay for Inhibitors of Hepatitis C Virus (HCV)
Details: Huh7.5.1 HCVcc-Cre (HCVcc is cell-culture hepatitis C virus) infection, luciferase reporter, 44 h; activity change, negative = inhibition: at 41.8 µM (top of the series)
Outline: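 Whole-lifecycle infectious HCVcc-Cre system; cells 1,000/well, compound then virus (~0.5 moi) added 4 h after plating, 44 h culture. Luciferase read 15 sec following 15 min substrate incubation, room temp.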
% is scaled to controls: 0 for no effect and ±100 for the full control effect; potency is read from the fitted curve at half-maximal effect; tags tell the direction and shape of the fitted curve.

Q: For `COc1ccccc1N(C)S(=O)(=O)c1ccc(C(=O)Nc2ncc(C)s2)cc1`, which Potency is on record?
A: Its Potency is active: 14.1 µM.

Q: For `O=C(/C=C/c1ccco1)N(Cc1cccc(F)c1)C1CCS(=O)(=O)C1` (centres undefined), which “activity change, negative = inhibition” value is on record?
A: Its value is inactive: 9.88%.

Q: Which Potency does the source give for `Cc1csc2ncnc(N3CCN(C(=O)Nc4ccc(OC(F)(F)F)cc4)CC3)c12` here?
A: The Potency was active: 7.94 µM.

Q: For `Cc1ccc(C(=O)N(CC(=O)NC2CCCCC2)c2ccccc2C)s1`, which Potency is on record?
A: The Potency was inconclusive [inhibitor, partial curve].

Q: With `COc1ccc(N(C)S(=O)(=O)c2cccc(C(=O)Nc3cccc(C(=O)NC4CC4)c3)c2)cc1` as the molecule, how does the Potency read?
A: Its Potency is active: 14.1 µM.

Q: With `CCCCN(C)C(=O)c1cc2cc3cc(OC)ccc3nc2o1` as the molecule, how does the Potency read?
A: Its Potency is inconclusive [inhibitor, single point].

Q: For `COc1cccc(N2CC(C(=O)Oc3ccc4ccccc4c3)CC2=O)c1` (centres undefined), which “activity change, negative = inhibition” value is on record?
A: Its value is inactive: 10.4%.

Q: For `CCOc1ccc2c(c1)C(C)=CC(C)(C)N2S(=O)(=O)c1ccc(NC(C)=O)cc1`, which Potency is on record?
A: Its Potency is inconclusive [inhibitor, single point].

Q: For `CCN(CC)CCN(C(=O)/C=C/c1cccs1)c1nc2ccc(OC)cc2s1`, which Potency is on record?
A: The Potency was inconclusive [inhibitor, single point].

Q: With `COc1ccc(N2CCN(C(=O)CCCSc3nc4ccccc4[nH]3)CC2)cc1` as the molecule, how does the Potency read?
A: Its Potency is inconclusive [inhibitor, single point].

Q: For `CCOC(=O)C1=C(C)N=C2SCCC(=O)N2C1c1sccc1C` (centres undefined), which Potency is on record?
A: The Potency was inconclusive [inhibitor, single point].

Q: For `COc1ccc(-c2cc(-c3ccc(OC)cc3)[nH]n2)cc1`, which Potency is on record?
A: The Potency was inconclusive [inhibitor, single point].

Q: Which “activity change, negative = inhibition” value does the source give for `CCCCC(CC)C(=O)O` (centres undefined) here?
A: The value was inactive: 5.68%.

Q: For `CC(NC(=O)C(=O)N1CCOCC1)C(c1cccs1)N1CCN(c2ccccc2F)CC1` (centres undefined), which “activity change, negative = inhibition” value is on record?
A: The value was inactive: 0.634%.

Q: With `CCCOc1ccc(C(=O)OCC(=O)NCCc2ccc(OCC)c(OCC)c2)cc1OC` as the molecule, how does the Potency read?
A: Its Potency is inconclusive [inhibitor, single point].

Q: Which Potency does the source give for `COc1ccc(NC(=O)c2cc(OC)c(OC)c(OC)c2)cc1S(=O)(=O)N1CCCCC1` here?
A: Its Potency is inconclusive [inhibitor, single point].

Q: For `Cc1ccc(/C=C/C(=O)Nc2ccc(O)c3c(=O)cc(-c4ccccc4Cl)oc23)cc1`, which Potency is on record?
A: Its Potency is inconclusive [inhibitor, full curve].

Q: Which Potency does the source give for `Oc1ccc(C=NN=C2c3ccccc3-c3ccccc32)c(O)c1` here?
A: Its Potency is inconclusive [inhibitor, single point].

Q: With `COc1ccc(-n2nc(C(=O)NCC(=O)Nc3cccc(Cl)c3)c3ccccc3c2=O)cc1OC` as the molecule, how does the Potency read?
A: The Potency was inconclusive [inhibitor, single point].

From PubChem BioAssay AID651820 (National Center for Advancing Translational Sciences (NCATS), 2012)
